The list shows a part of the results. The main result of the screen is listed elsewhere. These columns were measured beside it and carry no call.
What was measured:
Experiment in all cases: Primary Screen for Target Class Profiling of Small Molecule Inhibitors of Methyltransferases
[1] = target: Glycine N-methyltransferase (Homo sapiens) (UniProt Q14749); conditions: purified enzyme, MTase-Glo SAH luminescence; measured here: GNMT inhibition; at 40 µM; stronger effect = lower value
In short: (§1)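 Each enzyme was reacted with SAM and its substrate, with compounds tested once at 40 uM; SAH formed was read by MTase-Glo luminescence.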

[2] = target: Guanidinoacetate N-methyltransferase (Homo sapiens) (UniProt Q14353); conditions: purified enzyme, MTase-Glo SAH luminescence; measured here: GAMT inhibition; at 40 µM; stronger effect = lower value
In short: as §1

[3] = target: Histamine N-methyltransferase (Homo sapiens) (UniProt P50135); conditions: purified enzyme, MTase-Glo SAH luminescence; measured here: HNMT inhibition; at 40 µM; stronger effect = lower value
In short: as §1

[4] = target: Nicotinamide N-methyltransferase (Homo sapiens) (UniProt P40261); conditions: purified enzyme, MTase-Glo SAH luminescence; measured here: NNMT inhibition; at 40 µM; stronger effect = lower value
In short: as §1

[5] = target: Phenylethanolamine N-methyltransferase (Homo sapiens) (UniProt P11086); conditions: purified enzyme, MTase-Glo SAH luminescence; measured here: PNMT inhibition; at 40 µM; stronger effect = lower value
In short: as §1
% is set by controls: 0 for no effect and ±100 for the full control effect.

SMILES	activity change, negative = inhibition [1] [%]	activity change, negative = inhibition [2] [%]	activity change, negative = inhibition [3] [%]	activity change, negative = inhibition [4] [%]	activity change, negative = inhibition [5] [%]
CCn1cc(S(=O)(=O)NCC2Cn3cccc3CN2Cc2ccccc2)cn1 (stereo unspecified)	-10.9	-7.24	-2.96	-11.8	-8.13
Cn1cc(-c2ccsc2)c2nc(CN3CCNC(=O)C3)cn2c1=O	-10.2	-0.324	0.129	-1.02	-12
Cc1ccc(NC(=O)CN(C)S(=O)(=O)c2ccc3[nH]c4c(c3c2)CCCC4)cc1Cl	2.57	0	0.956	1.95	2.87
Cc1cncc(C(=O)N2CC(CO)C3(CCNCC3)C2)c1 (stereo unspecified)	-2.99	-2.84	-0.65	-3.4	-0.114
O=C(c1ccncc1)N1CCC2(CC1)CN(c1ncccn1)CC2CO (stereo unspecified)	-0.78	-1.99	-0.308	-4.07	7.14
CC(C)Cn1c(=O)c2cc(F)ccc2n2c(SCc3cccc(Cl)c3)nnc12	-12.7	0	2.31	-11.5	3.85
O=C(CCc1nnc2n(Cc3ccc(F)cc3)c(=O)c3ccccc3n12)NCCc1c[nH]c2ccccc12	-6.41	2.06	-2.98	-4.46	-5.57
COc1ccc(CN2C(=O)c3cc4ccccc4n3CC2(C)C(=O)NCCC(C)C)cc1 (stereo unspecified)	-6.85	4.66	1.17	-0.239	-1.5
CCC(C)N1C(=O)c2ccc(-c3ccco3)n2CC1(C)C(=O)NC1CCCCCCC1 (stereo unspecified)	-10.1	2.02	-5.99	-28.7	-2.37
O=c1ccn([C@@H]2O[C@H](CO)[C@@H](O)[C@H]2O)c(=O)[nH]1	1.85	0.96	8.98	-6.03	4.21
O=C(CCCc1cccs1)N1CCCC(O)(CN2CCCC2)C1 (stereo unspecified)	-0.35	-3.41	-0.296	2.11	1.88
CC(C)(C)n1nc(Cc2cccc([N+](=O)[O-])c2)c2c(N)ncnc21	–	-6.44	–	-46.8	-14.1
OC[C@@H]1CNC[C@H]1C1CCN(Cc2ccncc2F)CC1	-2.49	-3.45	-0.65	-4.3	-18
C=C1C(=O)OC2/C=C(\C)CC/C=C(\C=O)C(OC)C(OC(=O)C(C)CC)C12 (stereo unspecified)	4.1	1.37	6.18	-8.68	0.79
CCOC(=O)c1cc2n(n1)CC(C)(C(=O)NC1CCC(C)CC1)N(Cc1ccc(C)cc1)C2=O (stereo unspecified)	3.24	1.57	5.17	0.198	3.49
CCc1noc([C@@H]2CC(F)(F)CN2C(=O)c2ccncc2F)n1	-0.662	0.526	2.38	-2.03	-0.854
CC[C@H](NC(=O)c1c(O)c(-c2ccccc2)nc2ccccc12)c1ccccc1	2.14	-1.4	1.73	-18.1	-9.06
Cc1ccc(-c2cc(-c3cccnc3)nc3c(C)noc23)c(C)c1	-8.36	-6.78	-7.05	-21.1	-7.87
COc1ccc(-c2nnc3n(Cc4ccccc4)c(=O)c4ccccc4n23)c(O)c1	-10.9	4.28	-0.246	1.79	-2.24
CCCn1c(=O)c2cc(F)ccc2n2c(SCc3ccc(Cl)cc3)nnc12	-13.6	2.78	1.67	-14.2	-3.52
COc1cc(OC)cc(N2C(=O)c3cc(C(C)(C)C)nn3CC2(C)C(=O)NCc2ccccc2)c1 (stereo unspecified)	4.18	1.39	1.08	3.98	-0.788
Cc1cnc(Nc2ccc(F)cc2Cl)nc1-c1c[nH]c(C(=O)NC(CO)c2cccc(Cl)c2)c1 (stereo unspecified)	-5.28	2.26	7.49	-24	-19.4
CC(=O)NCCC(=O)N1CCCCC1C(=O)Nc1ccc(-n2nc(C)cc2C)cc1 (stereo unspecified)	-3.38	-11.2	-5.33	-10.9	-11.1
C[C@@H](Oc1cc(-n2cnc3ccc(OC4CCN(C)CC4)cc32)sc1C(N)=O)c1ccccc1Cl	–	-96.6	–	-98.4	-97.7
COCCn1nnc2cc(S(=O)(=O)N(C)CC(=O)N3CCOCC3)ccc21	-0.425	0.202	8.89	8.95	7.93
CC(C)=CCC(O)/C(C)=C/CO[C@@H]1O[C@H](CO)[C@@H](O)[C@H](O)[C@H]1O (stereo partly specified)	-3.08	-5.21	1.85	-14.9	-13
CC(C)(C)c1ccc(C(=O)CCCN2CCC(OC(c3ccccc3)c3ccccc3)CC2)cc1	-0.871	7.65	-16.7	-13.2	-0.466
Cc1cc2[nH]c(=O)[nH]c2cc1S(=O)(=O)Nc1ccc(F)cc1	9.49	0	14.9	2.18	1.97
Cc1nonc1Cc1nc(C2CCOCC2)nn1CC1COCCO1 (stereo unspecified)	-2.85	1.48	0.424	1.92	-0.206
COc1ccc(/C=C/C(=O)O[C@H]2[C@@H]3C=CO[C@@H](O[C@@H]4O[C@H](CO)[C@@H](O)[C@H](O)[C@H]4O)[C@@H]3[C@@]3(CO)O[C@@H]23)cc1O	-5.42	4.75	2.71	-8.18	2.72

Source: PubChem BioAssay AID1745853 (National Center for Advancing Translational Sciences (NCATS), 2022)
